{"source": "patent US20240317847A1", "about": "(Bayer, published 2024)", "binders": {"B1": {"name": "TPP-29536 (antibody, human IgG1, lambda)", "heavy": "EVQLLESGGGLVQPGGSLRLSCAASGFTFSSYGMHWVRQAPGKGLEWVAVISYDGSYKYYADSVKGRFTISRDNSKNTLYLQMNSLRAEDTAVYYCAAGVPDYWGQGTLVTVSSASTKGPSVFPLAPSSKSTSGGTAALGCLVKDYFPEPVTVSWNSGALTSGVHTFPAVLQSSGLYSLSSVVTVPSSSLGTQTYICNVNHKPSNTKVDKKVEPKSCDKTHTCPPCPAPPVAGPSVFLFPPKPKDTLMISRTPEVTCVVVGVSHEDPEVKFNWYVDGVEVHNAKTKPREEQYNSTYRVVSVLTVLHQDWLNGKEYKCKVSNKQLPSPIEKTISKAKGQPREPQVYTLPPSRDELTKNQVSLTCLVKGFYPSDIAVEWESNGQPENNYKTTPPVLDSDGSFFLYSKLTVDKSRWQQGNVFSCSVMHEALHNHYTQKSLSLSPGK", "light": "QSVLTQPPSASGTPGQRVTISCSGSSSNIGSDYDVHWYQQLPGTAPKLLIYSNEERPSGVPDRFSGSKSGTSASLAISGLRSEDEADYYCSAWDSSLSGPVFGGGTKLTVLGQPKAAPSVTLFPPSSEELQANKATLVCLISDFYPGAVTVAWKADSSPVKAGVETTTPSKQSNNKYAASSYLSLTPEQWKSHRSYSCQVTHEGSTVEKTVAPTECS", "notes": "hIgG-lambda-HS (human IgG1 with Fc-silencing mutations)"}}, "key": {"human IL-11 [1]": {"biological_target": "T1, human IL-11 (human, UniProt P20809 22-199)", "T1 construct": "Invigate recombinant protein; biotinylated when immobilized in the Di-complex ELISA; also called hIL11; hIL-11", "T1 sequence": "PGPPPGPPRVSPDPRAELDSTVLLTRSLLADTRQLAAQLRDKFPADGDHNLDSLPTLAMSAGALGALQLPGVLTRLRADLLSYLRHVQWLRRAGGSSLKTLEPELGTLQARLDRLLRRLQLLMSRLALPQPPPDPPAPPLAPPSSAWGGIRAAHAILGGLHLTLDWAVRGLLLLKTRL", "experiment": "Tri-complex ELISA, hIL-11 + mIL-11Ra-Fc + hgp130-Fc, inhibition of complex formation", "protocol": "In the Tri-complex ELISA format IL-11 antibodies are tested for their ability to inhibit the formation of a complex consisting of murine or human gp130-Fc fusion protein, with murine or human IL-11, and a murine IL11RA-Fc fusion protein. The assay format was adapted according to FIG. 18 (a, b), depending on whether murine or human IL-11 IgG antibodies were tested.\nIgG converted antibodies were subjected to the experimental assay procedure described in Example 19 and IC50 [M], respectively efficacy (%) were calculated accordingly."}, "cynomolgus IL-11 [2]": {"biological_target": "T2, cynomolgus IL-11 (cynomolgus, UniProt P20808 22-199)", "T2 construct": "Invigate recombinant protein; also called cIL11; Macaca IL-11", "T2 sequence": "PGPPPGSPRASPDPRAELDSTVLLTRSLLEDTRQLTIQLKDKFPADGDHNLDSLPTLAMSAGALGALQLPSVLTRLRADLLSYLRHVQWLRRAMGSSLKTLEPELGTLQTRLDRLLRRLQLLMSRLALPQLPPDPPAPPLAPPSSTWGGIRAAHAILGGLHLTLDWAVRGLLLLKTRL", "experiment": "SPR (Biacore), 37 C, antibody captured via anti-Fc, IL-11 as analyte", "protocol": "(§1) To assess the binding kinetics and affinity of anti-IL-11 bispecific antibodies as well as their species cross-reactivity profile, binding assays were conducted using surface plasmon resonance (SPR). […] Antibodies were captured either via anti-human Fc IgGs (“Human antibody capture kit”, Order No. BR100839, Cytiva) or via anti-mouse Fc IgGs (“Mouse antibody capture kit, Order No. BR100383, Cytiva) covalently amine coupled to a Series S CM5 sensor chip (Cytiva) depending on the isotype. The amine coupling was carried out according to the manufacturer's instructions using 1-ethyl-3-(3-dimethylaminopropyl) carbodiimide hydrochloride (EDC), N-hydroxysuccinimide (NHS) and ethanolamine HCl, pH 8.5 (“Amine Coupling Kit” BR-1000-50, Cytiva.). Human, mouse, cynomolgus or rat IL-11 was used as analyte at several dilutions within the concentration range from 0.05-200 nM. For binding assays with only one concentration 200 nM IL-11 was used. The sensor surface was regenerated with glycine pH 1.7 after each antigen injection. Obtained sensorgrams were double referenced (subtraction of reference flow cell signal and buffer injection) and were fitted to a 1:1 Langmuir binding model to derive kinetic data using the Biacore T200 Evaluation software or the Biacore Insight software.\n(§2) If no value is reported, there was either no binding or very low binding and multiphasic binding behavior."}, "murine IL-11 [3]": {"biological_target": "T3, murine IL-11 (mouse, UniProt P47873 22-199)", "T3 construct": "Invigate recombinant protein; biotinylated when immobilized in the Di-complex ELISA; also called mIL11; mIL-11", "T3 sequence": "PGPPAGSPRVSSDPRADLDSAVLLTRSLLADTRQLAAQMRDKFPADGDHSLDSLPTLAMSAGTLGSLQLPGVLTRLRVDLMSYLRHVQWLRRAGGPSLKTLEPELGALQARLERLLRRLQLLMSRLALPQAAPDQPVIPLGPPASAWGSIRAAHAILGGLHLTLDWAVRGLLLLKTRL", "experiment": "SPR (Biacore), 37 C, antibody captured via anti-Fc, IL-11 as analyte", "protocol": "as §1, §2"}, "human IL-11 [4]": {"biological_target": "T1, human IL-11", "experiment": "SPR (Biacore), 37 C, antibody captured via anti-Fc, IL-11 as analyte", "protocol": "as §1, §2"}, "cynomolgus IL-11 [5]": {"biological_target": "T2, cynomolgus IL-11", "experiment": "cell-based or functional assay"}, "rat IL-11": {"biological_target": "T4, rat IL-11 (rat, UniProt Q99MF5 22-199)", "T4 sequence": "T3 sequence with S50N, L84F, G94A, V137A, I138V", "experiment": "cell-based or functional assay"}, "murine IL-11 [6]": {"biological_target": "T3, murine IL-11", "experiment": "cell-based or functional assay"}, "human IL-11 [7]": {"biological_target": "T1, human IL-11", "experiment": "cell-based or functional assay"}}, "note": "Substitutions are numbered along the chain they refer to."}
{"binder": "B1", "values": [{"measurement": "Efficacy (%)", "setting": "human IL-11 [1]", "value": 98.7, "unit": "%"}, {"measurement": "IC50", "setting": "human IL-11 [1]", "value": 1, "unit": "nM"}, {"measurement": "Kd", "setting": "cynomolgus IL-11 [2]", "value": 0.24, "unit": "nM"}, {"measurement": "Kd", "setting": "murine IL-11 [3]", "value": 0.13, "unit": "nM"}, {"measurement": "Kd", "setting": "human IL-11 [4]", "value": 0.18, "unit": "nM"}, {"measurement": "Efficacy (%), Stat3 reporter gene assay", "setting": "cynomolgus IL-11 [5]", "value": 89.7, "unit": "%"}, {"measurement": "IC50, Stat3 reporter gene assay", "setting": "cynomolgus IL-11 [5]", "value": 1, "unit": "nM"}, {"measurement": "Efficacy (%), Stat3 reporter gene assay", "setting": "rat IL-11", "value": 90.9, "unit": "%"}, {"measurement": "IC50, Stat3 reporter gene assay", "setting": "rat IL-11", "value": 1.3, "unit": "nM"}, {"measurement": "Efficacy (%), Stat3 reporter gene assay", "setting": "murine IL-11 [6]", "value": 97.2, "unit": "%"}, {"measurement": "IC50, Stat3 reporter gene assay", "setting": "murine IL-11 [6]", "value": 1.4, "unit": "nM"}, {"measurement": "Efficacy (%), Stat3 reporter gene assay", "setting": "human IL-11 [7]", "value": 85.1, "unit": "%"}, {"measurement": "IC50, Stat3 reporter gene assay", "setting": "human IL-11 [7]", "value": 1.2, "unit": "nM"}]}
